Test results as given in the supplement of paper PMC4967469.

Columns and labels:
Experiment in all cases: Viability of human cancer cell lines after 72 h of drug (GDSC screen)
Tubastatin A = compound: CN1CCc2c(c3ccccc3n2Cc2ccc(C(=O)NO)cc2)C1 [Tubastatin A]; conditions: top dose 20 µM
Method: (§1)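 Human cancer cell lines in 384-well plates, medium with 10% serum, drug for 72 h over a 256-fold dose range (nine 2-fold or five 4-fold steps up to the top dose). Adherent lines were fixed and stained with the nucleic acid dye Syto60, suspension lines read with resazurin; signal relative to control wells, capped at 0 and 100%. One two-parameter sigmoid per drug and line, fitted in a mixed model over all curves with the slope shared within a line.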

Temozolomide = compound: Cn1nnc2c(C(N)=O)ncn2c1=O [Temozolomide]; conditions: top dose 30 µM
Method: as §1

IPA-3 = compound: Oc1ccc2ccccc2c1SSc1c(O)ccc2ccccc12 [IPA-3]; conditions: top dose 32 µM; top dose inferred
Method: as §1

Z-LLNle-CHO = compound: CCCC[C@@H](C=O)NC(=O)[C@H](CC(C)C)NC(=O)[C@H](CC(C)C)NC(=O)OCc1ccccc1 [Z-LLNle-CHO]; conditions: top dose 2.56 µM; top dose inferred
Method: as §1

XL-880 = compound: COc1cc2c(Oc3ccc(NC(=O)C4(C(=O)Nc5ccc(F)cc5)CC4)cc3F)ccnc2cc1OCCCN1CCOCC1 [XL-880]; conditions: top dose 5.12 µM; top dose inferred
Method: as §1

CI-1040 = compound: O=C(NOCC1CC1)c1ccc(F)c(F)c1Nc1ccc(I)cc1Cl [CI-1040]; conditions: top dose 10 µM; top dose inferred
Method: as §1

Rapamycin = compound: CO[C@H]1C[C@@H]2CC[C@@H](C)[C@@](O)(O2)C(=O)C(=O)N2CCCC[C@H]2C(=O)O[C@H]([C@H](C)C[C@@H]2CC[C@@H](O)[C@H](OC)C2)CC(=O)[C@H](C)/C=C(\C)[C@@H](O)[C@@H](OC)C(=O)[C@H](C)C[C@H](C)/C=C/C=C/C=C/1C [Rapamycin]; conditions: top dose 0.1 µM; top dose inferred
Method: as §1

JW-7-52-1 = compound: CCC(=O)N1CCN(c2ccc(-n3c(=O)ccc4cnc5ccc(-c6cnc7ccccc7c6)cc5c43)cc2C(F)(F)F)CC1 [JW-7-52-1]; conditions: top dose 1.2 µM; top dose inferred
Method: as §1

Cell Line	AUC (Tubastatin A)	pIC50 (Tubastatin A)	AUC (Temozolomide)	pIC50 (Temozolomide)	AUC (IPA-3)	pIC50 (IPA-3)	AUC (Z-LLNle-CHO)	pIC50 (Z-LLNle-CHO)	AUC (XL-880)	pIC50 (XL-880)	AUC (CI-1040)	pIC50 (CI-1040)	AUC (Rapamycin)	pIC50 (Rapamycin)	AUC (JW-7-52-1)	pIC50 (JW-7-52-1)
BC-1 (B-cell lymphoma, suspension)	0.914	< 4.70	0.855	4.73	0.939	< 4.49	0.851	5.82	0.646	6.12	0.936	< 5.00	0.742	7.57	0.931	< 5.92
OPM-2 (myeloma, suspension)	0.753	5.25	0.992	< 4.52	0.866	4.69	0.722	6.23	0.651	6.11	0.982	< 5.00	0.41	8.43	0.222	7.85
WSU-NHL (lymphoid neoplasm, suspension)	0.986	< 4.70	0.985	< 4.52	0.717	5.12	0.971	< 5.59	0.365	6.84	0.909	< 5.00	0.969	< 7.00	0.957	< 5.92
NCI-H526 (small cell lung carcinoma, suspension)	0.902	< 4.70	0.988	< 4.52	0.982	< 4.49	0.987	< 5.59	0.701	5.94	0.987	< 5.00	0.859	7.11	0.86	6.03
OCI-M1 (acute myeloid leukaemia, suspension)	0.754	5.27	0.972	< 4.52	0.99	< 4.49	0.678	6.36	0.733	5.92	0.898	5.14	0.964	< 7.00	0.616	6.84
ST486 (Burkitt lymphoma, suspension)	0.75	5.23	0.982	< 4.52	0.638	5.34	0.777	6.04	0.436	6.66	0.873	5.11	0.882	7.07	0.571	6.94
SUP-HD1 (Hodgkin lymphoma, suspension)	0.898	< 4.70	0.978	< 4.52	0.856	4.62	0.702	6.24	0.658	6.07	0.88	5.02	0.79	7.37	0.604	6.84
HAL-01 (lymphoblastic leukaemia, suspension)	0.772	5.16	0.952	< 4.52	0.825	4.79	0.804	5.95	0.51	6.47	0.629	5.87	0.876	7.10	0.522	7.07
CCRF-CEM (lymphoblastic leukaemia, suspension)	0.826	5.02	0.968	< 4.52	0.552	5.57	0.753	6.13	0.486	6.53	0.797	5.41	0.473	8.27	0.385	7.42
A3-KAW (B-cell lymphoma, suspension)	0.854	4.96	0.988	< 4.52	0.97	< 4.49	0.745	6.17	0.627	6.18	0.964	< 5.00	0.348	8.59	0.484	7.17
SUP-T1 (T-cell lymphoblastic leukaemia, suspension)	0.924	< 4.70	0.981	< 4.52	0.903	< 4.49	0.985	< 5.59	0.706	5.94	0.985	< 5.00	0.989	< 7.00	0.988	< 5.92
KM-H2 (Hodgkin lymphoma, suspension)	0.986	< 4.70	0.986	< 4.52	0.867	4.66	0.777	6.06	0.733	5.89	0.967	< 5.00	0.877	7.13	0.858	6.12
NCI-H1838 (lung adenocarcinoma, adherent)	0.986	< 4.70	0.981	< 4.52	0.963	< 4.49	0.908	< 5.59	0.879	< 5.29	0.913	< 5.00	0.965	< 7.00	0.9	< 5.92
CA46 (Burkitt lymphoma, suspension)	0.579	5.68	0.983	< 4.52	0.61	5.39	0.939	< 5.59	0.521	6.44	0.946	< 5.00	0.967	< 7.00	0.786	6.25
PF-382 (T-cell lymphoblastic leukaemia, suspension)	0.868	4.84	0.99	< 4.52	0.659	5.28	0.692	6.29	0.535	6.41	0.988	< 5.00	0.768	7.48	0.517	7.08

pIC50: −log10 of the molar value. By IC50 is meant the dose at which the fit gives 50% viability; where the fit passes the top or lowest dose, that dose stands as a limit. AUC is the area under the same curve over the 256-fold range up to the top dose, as a fraction; values near 1 show little effect. For part of these data: Any top dose called inferred comes from the curve model; the source does not state it.
